Laboratory results from the supplement of paper PMC11880418.
Where a name gives a salt, the structure may show the parent alone. The list shows a part of the results. The data scatter; read single values as rough.

How the values were obtained:
Experiment in all cases: ALDHbr (CSC) cell proportion score relative to DMSO vehicle (ratio to DMSO); breast (SUM159) / gastric (MKN45) / pancreatic (PANC1) / colon cancer lines; ALDHbr cells have high ALDH activity and are rich in cancer stem cells (CSC); higher = more CSC (ALDHbr) cells remaining
Conditions in all cases: 10 µM; 72 h
MKN45 = system: MKN45
PANC1 = system: PANC1
SUM159 = system: SUM159
T84 = system: T84
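Note: High-content imaging of ALDEFLUOR-stained cells with Hoechst-labelled nuclei in 384-well plates, triplicate wells, scored as Z-score against 0.1% DMSO vehicle, negative meaning fewer ALDHbr cells.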

Row | SMILES | ALDHbr (MKN45) | ALDHbr (PANC1) | ALDHbr (SUM159) | ALDHbr (T84)
1 | O=C(NCCN1CCOCC1)c1ccc(Cl)cc1 [Moclobemide] | 0.992 | 0.992 | 1.11 | 1.04
2 | CC(C)(C)C(=O)OCOC(=O)[C@@H]1N2C(=O)[C@@H](NC(=O)[C@H](N)c3ccccc3)[C@H]2SC1(C)C [Pivampicillin] | 1.01 | 1.05 | 0.858 | 0.861
3 | O=c1[nH]c(=O)n(C2CCCO2)cc1F (stereo not given) [Tegafur] | 0.762 | 0.969 | 0.927 | 0.625
4 | CN1CCCC(CC2c3ccccc3Sc3ccccc32)C1 (stereo not given) [Metixene hydrochloride] | 1.1 | 1.08 | 0.341 | 0.329
5 | CCN(CC)CC#CCOC(=O)C(O)(c1ccccc1)C1CCCCC1 (stereo not given) [Oxybutynin chloride] | 0.68 | 0.801 | 0.835 | 1.07
6 | C[C@]12CC[C@@H]3c4ccc(O)cc4CC[C@H]3[C@@H]1C[C@@H](O)[C@@H]2O [Estriol] | 1.06 | 0.802 | 1.05 | 0.875
7 | Cn1c(=O)c2c(ncn2CC2OCCO2)n(C)c1=O [Doxofylline] | 1.01 | 0.869 | 1.1 | 0.971
8 | CC12CC3CC(C)(C1)CC(N)(C3)C2 [Memantine Hydrochloride] | 1.15 | 1.03 | 0.822 | 0.974
9 | COc1cc(N)c(Cl)cc1C(=O)NC1CCN(Cc2ccccc2)CC1 [Clebopride maleate] | 1.08 | 0.662 | 1.34 | 0.819
10 | CC(=O)c1ccc2c(c1)N(CCCN1CCC(CCO)CC1)c1ccccc1S2 [Piperacetazine] | 1.02 | 0.9 | 0.688 | 0.511
11 | Cc1c(N(C)C)c(=O)n(-c2ccccc2)n1C [Amidopyrine] | 0.947 | 0.962 | 0.887 | 1.01
12 | c1ccc(CC2=NCCN2)cc1 [Tolazoline hydrochloride] | 0.885 | 1.06 | 1.42 | 0.87
13 | C[C@]12CCC(=O)C=C1CC[C@@H]1[C@@H]2[C@@H](O)C[C@@]2(C)[C@H]1CC[C@]2(O)C(=O)CO [Hydrocortisone base] | 1.05 | 0.756 | 1.25 | 1.02
14 | CNC1(C)C2CCC(C2)C1(C)C (stereo not given) [Mecamylamine hydrochloride] | 1.23 | 1.01 | 1.23 | 1.19
15 | N=c1nc(N2CCCCC2)cc(N)n1O [Minoxidil] | 1.06 | 0.999 | 0.942 | 0.748
16 | C[C@@](Cc1ccc(O)c(O)c1)(NN)C(=O)O [Carbidopa] | 1.25 | 0.933 | 1.03 | 0.758
17 | CN1CCN(C(c2ccccc2)c2ccccc2)CC1 [Cyclizine hydrochloride] | 1.07 | 0.971 | 0.844 | 0.96
18 | CN(C)C(=O)C(CCN1CCC(O)(c2ccc(Cl)cc2)CC1)(c1ccccc1)c1ccccc1 [Loperamide hydrochloride] | 0.78 | 0.667 | 0.705 | 0.148
19 | CN(C)C/C=C(/c1ccc(Br)cc1)c1cccnc1 [Zimelidine dihydrochloride monohydrate] | 0.992 | 0.909 | 0.855 | 1.02
20 | CN[C@H](CC(C)C)C(=O)N[C@H]1C(=O)N[C@@H](CC(N)=O)C(=O)N[C@H]2C(=O)N[C@H]3C(=O)N[C@H](C(=O)N[C@H](C(=O)O)c4cc(O)cc(O)c4-c4cc3ccc4O)[C@H](O)c3ccc(c(Cl)c3)Oc3cc2cc(c3O[C@@H]2O[C@H](CO)[C@@H](O)[C@H](O)[C@H]2O[C@H]2C[C@](C)(N)[C@H](O)[C@H](C)O2)Oc2ccc(cc2Cl)[C@H]1O [Vancomycin hydrochloride] | 1.04 | 0.889 | 0.97 | 0.926
21 | CCC(C)(C)c1ccc(CC(C)CN2C[C@@H](C)O[C@@H](C)C2)cc1 (stereo not given in full) [Amorolfine hydrochloride] | 0.683 | 0.93 | 0.615 | 0.858
22 | CN1C(C(=O)Nc2ccccn2)=C(O)c2ccccc2S1(=O)=O [Piroxicam] | 1.04 | 0.855 | 1.05 | 0.886
23 | Cc1cccc(Nc2ccccc2C(=O)O)c1C [Mefenamic acid] | 0.962 | 1.04 | 1.26 | 0.941
24 | Cc1ncc([N+](=O)[O-])n1CC(C)O (stereo not given) [Secnidazole] | 1.11 | 0.86 | 1.03 | 1.04
25 | CCc1oc2ccccc2c1C(=O)c1cc(Br)c(O)c(Br)c1 [Benzbromarone] | 1.03 | 0.961 | 0.813 | 0.909
26 | CN(Cc1cnc2nc(N)nc(N)c2n1)c1ccc(C(=O)N[C@@H](CCC(=O)O)C(=O)O)cc1 (racemic) [Amethopterin (R,S)] | 0.134 | 0.856 | 0.632 | 0.445
27 | CN[C@@H]1[C@@H](O[C@H]2O[C@H](CO)[C@@H](N)[C@H](O)[C@H]2O)OC2C[C@@H](N)[C@@H](O[C@H]3[C@H](O)[C@@H](O)[C@H](N)C[C@@H]3N)OC2[C@@H]1O (stereo not given in full) [Apramycin] | 0.89 | 0.972 | 0.912 | 0.99
28 | CCN(CC)CCNC(=O)c1cc(S(C)(=O)=O)ccc1OC [Tiapride hydrochloride] | 0.951 | 0.905 | 0.953 | 0.96

Row | SMILES | ALDHbr (MKN45) | ALDHbr (PANC1) | ALDHbr (SUM159) | ALDHbr (T84)
29 | CN(C)CCOC1=Cc2ccccc2Sc2ccc(Cl)cc21 [Zotepine] | 0.866 | 0.969 | 0.549 | 0.638
30 | CC(=O)O[C@]1(C(C)=O)CC[C@H]2[C@@H]3C=C(C)C4=CC(=O)CC[C@@H]4[C@H]3CC[C@@]21C [Nomegestrol acetate] | 1.1 | 0.684 | 0.623 | 0.902
31 | NC(=O)c1cccnc1 [Nicotinamide] | 0.936 | 0.844 | 1.03 | 0.968
32 | COc1ccc(C(Cl)=C(c2ccc(OC)cc2)c2ccc(OC)cc2)cc1 [Chlorotrianisene] | 0.463 | 1.2 | 1.07 | 0.864
33 | COc1cnc(NS(=O)(=O)c2ccc(N)cc2)nc1 [Sulfameter] | 0.903 | 1.04 | 1.02 | 1.05
34 | COC1=CC(=O)C[C@@H](C)[C@]12Oc1c(Cl)c(OC)cc(OC)c1C2=O [Griseofulvin] | 1.18 | 0.733 | 1.54 | 1.11
35 | C=CCc1ccccc1OCC(O)CNC(C)C (stereo not given) [Alprenolol hydrochloride] | 0.878 | 0.984 | 1.44 | 1.03
36 | CC(C)CN(C[C@@H](O)[C@H](Cc1ccccc1)NC(=O)O[C@H]1CCOC1)S(=O)(=O)c1ccc(N)cc1 [Amprenavir] | 0.966 | 0.861 | 1.1 | 0.899
37 | COc1ccc([C@@H]2CC(=O)c3c(O)cc(O[C@@H]4O[C@H](CO[C@@H]5O[C@@H](C)[C@H](O)[C@@H](O)[C@H]5O)[C@@H](O)[C@H](O)[C@H]4O)cc3O2)cc1O [Hesperidin] | 1.09 | 0.861 | 1.03 | 1
38 | Cc1c(OCC(F)(F)F)ccnc1C[S+]([O-])c1nc2ccccc2[nH]1 (stereo not given) [Lansoprazole] | 1.21 | 0.829 | 1.68 | 0.764
39 | CC1(C)S[C@@H]2[C@H](NC(=O)[C@H](C(=O)O)c3ccsc3)C(=O)N2[C@H]1C(=O)O [Ticarcillin sodium] | 1.01 | 0.931 | 0.824 | 0.94
40 | CN(Cc1cc(Br)cc(Br)c1N)C1CCCCC1 [Bromhexine hydrochloride] | 0.86 | 1.03 | 1.04 | 0.88
41 | CCN(CC)C(=O)/C(C#N)=C/c1cc(O)c(O)c([N+](=O)[O-])c1 [Entacapone] | 0.908 | 0.792 | 0.963 | 0.976
42 | OCCOCCN1CCN(C(c2ccccc2)c2ccc(Cl)cc2)CC1 (stereo not given) [Hydroxyzine dihydrochloride] | 1.1 | 1.05 | 1.06 | 0.795
43 | CCCCOC(=O)c1ccc(N)cc1 [Butamben] | 1.05 | 0.3 | 0.941 | 0.778
44 | CC(C)NCC(O)c1ccc(O)c(O)c1 (single isomer, unassigned; (+)) [(+)-Isoproterenol (+)-bitartrate salt] | 1.06 | 0.795 | 2.22 | 0.857
45 | Cc1cccc(C)c1NC(=O)C(C)N (stereo not given) [Tocainide hydrochloride] | 1.09 | 0.979 | 0.833 | 0.979
46 | CC(=O)OCC(CCn1cnc2cnc(N)nc21)COC(C)=O [Famciclovir] | 1.29 | 0.987 | 0.844 | 1.04
47 | CN1CCCCC1CCN1c2ccccc2Sc2ccc([S+](C)[O-])cc21 (stereo not given) [Mesoridazine besylate] | 1.08 | 0.756 | 0.623 | 0.818
48 | NC(=O)c1cnccn1 [Pyrazinamide] | 1.01 | 1.04 | 1.07 | 1.01
49 | CCOc1ccc2nc(S(N)(=O)=O)sc2c1 [Ethoxzolamide] | 0.179 | 0.451 | 0.336 | 0.529
50 | O=C(CCNNC(=O)c1ccncc1)NCc1ccccc1 [Nialamide] | 1.11 | 0.968 | 0.895 | 1.02
51 | Cc1cc(C(C)(C)C)c(O)c(C)c1CC1=NCCN1 [Oxymetazoline hydrochloride] | 1.03 | 0.916 | 0.875 | 0.918
52 | COc1ccc2c(c1)C(=O)N(CCc1ccc(S(=O)(=O)NC(=O)NC3CCCCC3)cc1)C(=O)C2(C)C [Gliquidone] | 1 | 0.983 | 1.02 | 0.972
53 | CCc1nc(N)nc(N)c1-c1ccc(Cl)cc1 [Pyrimethamine] | 0.23 | 1.12 | 1.62 | 0.472
54 | NCC[C@H](O)C(=O)N[C@@H]1C[C@H](N)[C@@H](O[C@H]2O[C@H](CN)[C@@H](O)[C@H](O)[C@H]2O)[C@H](O)[C@H]1O[C@H]1O[C@H](CO)[C@@H](O)[C@H](N)[C@H]1O [Amikacin hydrate] | 1.07 | 1.04 | 1.15 | 1.03
55 | CN1CCN(CCCN2c3ccccc3Sc3ccc(Cl)cc32)CC1 [Prochlorperazine dimaleate] | 0.63 | 0.955 | 0.266 | 0.188
